# Measurements: PubChem BioAssay AID1460 (National Center for Advancing Translational Sciences (NCATS), 2008)
# “And” between values parts separate entries of the source, which are not always exact repeats. Identical values can stand only once. Hit rate of the full screen: of about 270,000 compounds, about 5,800 (2.1%) were called active. This list was built around the results that the source calls inconclusive (neither active nor inactive); the mix of calls is not that of the screen. Calls follow the shape of the dose curve; as a rule, active = well fitted inhibition curve with a large enough effect; inconclusive = small, poorly fitted or top-dose-only effect; inactive = flat fitted curve, though single readings scatter. Potencies of inconclusive entries are doubtful fits and often do not repeat.
# Target: Microtubule-associated protein tau (Homo sapiens) (UniProt P10636)
# UniProt P10636, sequence (P10636 whole entry, looked up): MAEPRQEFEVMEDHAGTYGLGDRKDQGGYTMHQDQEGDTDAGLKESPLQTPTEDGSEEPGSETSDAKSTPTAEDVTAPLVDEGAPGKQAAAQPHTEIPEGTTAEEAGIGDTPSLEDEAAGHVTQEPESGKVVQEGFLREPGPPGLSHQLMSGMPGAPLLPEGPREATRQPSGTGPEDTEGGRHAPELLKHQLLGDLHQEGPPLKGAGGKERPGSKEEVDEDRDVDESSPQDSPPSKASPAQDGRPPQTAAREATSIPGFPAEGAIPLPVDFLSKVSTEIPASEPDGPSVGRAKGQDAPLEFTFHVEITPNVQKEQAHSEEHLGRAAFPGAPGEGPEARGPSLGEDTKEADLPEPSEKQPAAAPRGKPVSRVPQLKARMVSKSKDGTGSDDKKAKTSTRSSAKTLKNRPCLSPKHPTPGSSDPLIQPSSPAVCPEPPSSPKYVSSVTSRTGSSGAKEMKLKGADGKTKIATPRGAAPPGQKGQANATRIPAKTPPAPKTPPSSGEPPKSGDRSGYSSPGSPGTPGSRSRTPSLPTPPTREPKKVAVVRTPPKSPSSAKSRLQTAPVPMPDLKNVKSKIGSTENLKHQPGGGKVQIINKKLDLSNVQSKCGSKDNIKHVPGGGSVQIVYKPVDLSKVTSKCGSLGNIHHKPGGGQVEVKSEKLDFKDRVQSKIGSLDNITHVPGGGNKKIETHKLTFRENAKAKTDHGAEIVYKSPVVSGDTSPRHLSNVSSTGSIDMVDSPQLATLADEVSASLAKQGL
# Test: qHTS for Inhibitors of Tau Fibril Formation, Thioflavin T Binding; also: nearly all actives have a fitted effect of over 55% in size
# Settings: recombinant tau K18 P301L (four-repeat tau fragment), heparin-induced fibrillization, ThT fluorescence; series mostly up to 57.4 µM
# Summary of the method: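 K18 P301L tau (15 uM + 0.24 uM Alexa 594-tagged), heparin 20 uM, NaOAc pH 7, 6 h 37 C; ThT 30 uM, 1 h RT, ex 450/em 510 nm.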
# Potency is read from the fitted curve at half-maximal effect; tags tell the direction and shape of the fitted curve.
row,Compound,Potency
1,CO/N=C/c1ccc(Sc2ccccc2N)c([N+](=O)[O-])c1,"inconclusive: 22.4 µM [inhibitor, partial curve, poor fit]"
2,COC(=O)c1cc2oc3ccccc3c2n1Cc1ccccn1,inactive
3,COc1cccc(CNC(=O)Nc2ccc3c(c2)N(C)C(=O)c2ccccc2S3)c1,inactive
4,C=C/C(C)=C/CC1C(=C)CCC2C(C)(C(=O)O)CCCC12C (stereo not given),"inconclusive: 39.8 µM [inhibitor, single point]"
5,CC1=NN(c2ccccc2)C(=O)/C1=C\C=C1\N(C)c2ccccc2C1(C)C,active: 1.58 µM
6,COc1ccc(CNC(=O)C2CCN(c3nnc(C)c4c(C)n(-c5ccc(C)cc5)nc34)CC2)cc1,"inconclusive: 39.8 µM [inhibitor, single point]"
7,Cc1ccc(C(C#N)c2ccc3c(C(F)(F)F)cc(C(F)(F)F)nc3n2)cc1 (stereo not given),"inconclusive: 15.8 µM [inhibitor, partial curve]"
8,COc1ccc(CCNCc2ccc(OCc3ccc(Cl)nc3)c(OC)c2)cc1OC,inactive
9,Cc1ccc(NC(=O)c2cnc(SCC(=O)N3CCCc4ccccc43)n(C)c2=O)cc1C,inactive
10,Cn1ccc(=Nc2ccc(NC(=O)c3ccc(N=c4ccn(C)c5ccc([N+](=O)[O-])cc45)cc3)cc2)cc1,"inconclusive: 2.24 µM [inhibitor, full curve]"
11,Cc1cccc2cc(CN(Cc3ccc(F)cc3)C(=O)N3CCOCC3)c3nnnn3c12,inactive
12,O=C1c2cc(S(=O)(=O)NCCO)ccc2-c2ccc(S(=O)(=O)NCCO)cc21,inactive
13,Cc1ccc(Cl)c(OC(=O)c2ccc(N3CCOCC3)c([N+](=O)[O-])c2)c1,"inconclusive: 15.8 µM [inhibitor, partial curve]"
14,CCOC(=O)CN(C)Cc1c[nH]c2ccccc12,"inconclusive: 28.2 µM [inhibitor, partial curve]"
15,COc1ccc(C2=NOC(COc3ccc([N+](=O)[O-])cc3)C2)cc1 (stereo not given),"inconclusive: 1.41 µM [inhibitor, full curve, poor fit]"
16,Cc1ccc(-n2c(SCC(=O)Nc3ccc4c5c(cccc35)CC4)nc(O)cc2=O)cc1,inactive
17,COC(=O)c1ccc(Cn2c(C)cc(C)[n+]2C)o1,inactive
18,Cc1oc(-c2ccccc2)nc1Cn1c(=O)cc(-c2ccccc2)c2c(C)nn(C)c21,"inconclusive: 44.7 µM [inhibitor, single point]"
19,COCCn1c(=O)c2cc3c(=O)n(CCOC)c(=O)c3cc2c1=O,inactive
20,COc1ccc(C(=O)N2CCN(CCc3ccccn3)CC2)cc1,inactive
21,Cc1ccc(NC(=O)C2CCCN(c3nc4ccccc4s3)C2)c(C)c1 (stereo not given),inactive
22,O=C1NC(=Nc2ccccc2)/C(=C/c2ccco2)S1,active: 22.4 µM
23,Cn1c(=O)c2c(-c3ccccc3)n3c(c2n(C)c1=O)C(c1cccc([N+](=O)[O-])c1)Nc1ccccc1-3 (stereo not given),"inconclusive: 25.1 µM [activator, single point]"
24,CCOc1ccc(NC(=O)Nc2ccc3c(c2)nnn3C)cc1,"inconclusive: 15.8 µM [inhibitor, partial curve, poor fit]"

row,Compound,Potency
1,O=C(O)/C=C/c1coc2ccccc2c1=O,inactive
2,CCCn1c(CNc2ccccc2O)nc2ccccc21,active: 28.2 µM
3,FC(F)(F)c1cnc(NNC(=S)Nc2cccnc2)c(Cl)c1,"inconclusive: 39.8 µM [inhibitor, single point]"
4,c1ccc(N2CC3CCc4ccccc4C3=N2)cc1 (stereo not given),"inconclusive: 12.6 µM [inhibitor, partial curve]"
5,CC1(C)Cc2c(C#N)c(N3CCN(C(=O)c4ccco4)CC3)nc(Cc3ccccc3)c2CO1,"inconclusive: 12.6 µM [inhibitor, partial curve]"
6,Cc1cccc2sc(N(CCCN(C)C)C(=O)c3sc4ccccc4c3Cl)nc12,inactive
7,COCCN(C)Cc1cn(-c2ccc(F)cc2F)nc1-c1ccccc1C,"inconclusive: 39.8 µM [inhibitor, single point]"
8,CC1(C)C(=O)Nc2ccccc2N1C(=O)Cn1ncc(Cl)c(Cl)c1=O,"inconclusive: 44.7 µM [inhibitor, single point]"
9,CN(C)c1ccc(/C=N/NC(=O)c2ccccc2)cc1,"inconclusive: 10 µM [inhibitor, partial curve]"
10,COC(=O)Cn1c(SCCOc2ccccc2Cl)nc2ccccc21,"inconclusive: 35.5 µM [inhibitor, single point]"
11,CCn1c(SCC(=O)c2cc(OC)ccc2OC)nnc1C1CC1,"inconclusive: 20 µM [inhibitor, partial curve]"
12,Cc1nn(C)cc1C1C(C#N)=C(N)N(c2ccc(F)c([N+](=O)[O-])c2)C2=C1C(=O)CCC2 (stereo not given),"inconclusive: 17.8 µM [inhibitor, single point]"
13,Cc1cc2cc(C)c(NCCNC(=O)c3ccccc3)nc2cc1C,"inconclusive: 20 µM [inhibitor, single point]"
14,COc1ccc(-c2cc(C(=O)Nc3c(C(=O)c4ccc(C)c(F)c4)oc4ccccc34)no2)cc1,inactive
15,O=C(COC(=O)C1CSC2(c3ccc(F)cc3)CCC(=O)N12)NC(=O)NC1CCCC1 (stereo not given),inactive
16,CC(=C\c1ccco1)/C=C(\C#N)C(=O)NCCc1c[nH]c2ccccc12,"inconclusive: 2.24 µM [inhibitor, full curve]"
17,Cc1cc(/C=C2\SC(=Nc3ccccc3)NC2=O)c(C)n1-c1ccc(S(N)(=O)=O)cc1,"inconclusive: 14.1 µM [inhibitor, partial curve]"
18,COc1ccc(OCC(=O)Nc2ccc3c(c2)N(C)C(=O)c2ccccc2S3)cc1,inactive
19,O=C1CCCC(=O)N1c1ccc(Oc2ccc(Cl)cc2)cc1,inactive
20,Cc1cccc(OCC(=O)Nc2cc(S(=O)(=O)N3CCCCC3)ccc2N2CCN(C)CC2)c1,inactive
21,C/C(N)=C(/C#N)C(=O)COC(=O)c1cccc2ccccc12,inactive
22,N#C/C(=N\O)c1nc(-c2ccccc2)cs1,"inactive and inconclusive: 14.1 µM [inhibitor, partial curve]"
23,Cc1cc2c(=O)oc(-c3ccccc3Br)nc2s1,"inconclusive: 10 µM [inhibitor, partial curve, poor fit]"
24,CCOC(=O)N1CCN(C(=O)Cc2ccc(-n3c(=O)[nH]c4ccccc4c3=O)cc2)CC1,"inconclusive: 3.55 µM [inhibitor, full curve]"

row,Compound,Potency
1,COc1cccc(CNn2c(-c3cccc(C)c3)nc3ccccc3c2=O)c1,"inconclusive: 17.8 µM [inhibitor, partial curve]"
2,CC(C)CN(CC(C)C)c1nnc(NC(=O)Nc2cccc(C(F)(F)F)c2)s1,"inconclusive: 25.1 µM [inhibitor, single point]"
3,CCOC(=O)Cc1csc(NC(=S)NC(=O)c2ccc([N+](=O)[O-])cc2)n1,"inconclusive: 15.8 µM [inhibitor, partial curve]"
4,C/C(=N\N=c1/sc2ccccc2n1C)c1ccc(N2CCOCC2)cc1,"inconclusive: 7.94 µM [inhibitor, partial curve]"
5,COc1ccc(-n2c(C)cc(/C=N/Nc3nnc(C)n3N)c2C)cc1,active: 28.2 µM
6,Cc1cc(=O)n2[nH]c(NCc3ccc(F)cc3)nc2n1,inactive
7,COC(=O)c1ccc(COc2ccccc2/C=N/NS(=O)(=O)c2ccccc2)cc1,"inconclusive: 5.01 µM [inhibitor, partial curve, poor fit]"
8,O=C(COC(=O)[C@H](Cc1ccccc1)NC(=O)c1ccco1)NCc1ccccc1,inactive
9,CCOc1ccc2nc(-c3ccccc3)[nH]c2c1,"inconclusive: 7.08 µM [inhibitor, partial curve]"
10,COc1cccc(/C(C)=N/NC(=O)c2ccc(N(C)C)cc2)c1,"inconclusive: 5.01 µM [inhibitor, partial curve]"
11,Cc1cc(-n2c(C)c3c(C)nnc(C)c3c2C)ccc1N,"inconclusive: 25.1 µM [inhibitor, partial curve]"
12,Cc1ccc(N(CC(=O)N/N=C/c2ccc(OC3CSC3)cc2)S(=O)(=O)c2ccccc2)c(C)c1,"inconclusive: 10 µM [inhibitor, single point]"
13,COc1ccc(NC(=O)c2sc3nc4c(cc3c2N)CN(C(C)C)CC4)c(OC)c1,active: 12.6 µM
14,CC/C(=N\NC(=O)c1ccc(N(C)C)cc1)c1ccccc1,"inconclusive: 10 µM [inhibitor, partial curve]"
15,Cc1cccc(C(=O)NCC(c2ccc3c(c2)OCO3)N2CCN(c3ccccc3F)CC2)c1 (stereo not given),inactive
16,O=C(COC(=O)c1ccc(F)cc1F)Nc1ccc2[nH]c(=O)[nH]c2c1,"inconclusive: 12.6 µM [inhibitor, partial curve]"
17,CCc1ccc(Oc2nc3c(C)cccn3c(=O)c2/C=C(\C#N)c2nc3ccccc3[nH]2)cc1,"inconclusive: 39.8 µM [inhibitor, single point]"
18,CC(=O)c1c(C)[nH]c(=S)c(C#N)c1-c1ccc(Cl)cc1,"inconclusive: 28.2 µM [inhibitor, single point]"
19,Nc1ccc(-c2nc3ccc(-c4nc5ccc(N)cc5[nH]4)cc3[nH]2)cc1,active: 4.47 µM and active: 12.6 µM
20,COCCn1nnnc1C(c1cc2cc(C)ccc2[nH]c1=O)N1CCc2ccccc21 (stereo not given),active: 28.2 µM
21,CC(=O)Nc1cccc(OCC(=O)/C=C2\N(C)c3ccccc3C2(C)C)c1,"inconclusive: 14.1 µM [inhibitor, partial curve]"
22,O=C(CC(Nc1cccc(Cl)c1Cl)C(=O)OCC(=O)c1cccs1)c1ccccc1 (stereo not given),inactive
